Laboratory results taken from PubChem BioAssay AID1645887 (National Center for Advancing Translational Sciences (NCATS), 2021).
Where “and” joins values, the source holds several entries; their conditions need not be identical. Identical values can stand only once. The whole screen tested about 16,000 compounds, of which about 40 (0.2%) were called active. Inconclusive results (about 1%) are left out. Calls come from the whole dose curve; as a rule, active = well fitted activation curve with a large enough effect; inconclusive = small, poorly fitted or top-dose-only effect, or another doubt; inactive = no such curve, though single readings can be large or run the other way. Some of the results follow.

target: Rap guanine nucleotide exchange factor 4 (Homo sapiens) (UniProt Q8WZA2); assay: Validation qHTS for agonist of cAMP-regulated guanine nucleotide exchange factor 4 (EPAC2); conditions: EPAC2 Rap1B BODIPY-GDP exchange, fluorescence; activation: active compounds read high;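 note: exchange makes BODIPY-GDP fluorescence drop when released from Rap1B; series mostly up to about 150 µM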
Sequence of UniProt Q8WZA2 (Q8WZA2 whole entry, looked up): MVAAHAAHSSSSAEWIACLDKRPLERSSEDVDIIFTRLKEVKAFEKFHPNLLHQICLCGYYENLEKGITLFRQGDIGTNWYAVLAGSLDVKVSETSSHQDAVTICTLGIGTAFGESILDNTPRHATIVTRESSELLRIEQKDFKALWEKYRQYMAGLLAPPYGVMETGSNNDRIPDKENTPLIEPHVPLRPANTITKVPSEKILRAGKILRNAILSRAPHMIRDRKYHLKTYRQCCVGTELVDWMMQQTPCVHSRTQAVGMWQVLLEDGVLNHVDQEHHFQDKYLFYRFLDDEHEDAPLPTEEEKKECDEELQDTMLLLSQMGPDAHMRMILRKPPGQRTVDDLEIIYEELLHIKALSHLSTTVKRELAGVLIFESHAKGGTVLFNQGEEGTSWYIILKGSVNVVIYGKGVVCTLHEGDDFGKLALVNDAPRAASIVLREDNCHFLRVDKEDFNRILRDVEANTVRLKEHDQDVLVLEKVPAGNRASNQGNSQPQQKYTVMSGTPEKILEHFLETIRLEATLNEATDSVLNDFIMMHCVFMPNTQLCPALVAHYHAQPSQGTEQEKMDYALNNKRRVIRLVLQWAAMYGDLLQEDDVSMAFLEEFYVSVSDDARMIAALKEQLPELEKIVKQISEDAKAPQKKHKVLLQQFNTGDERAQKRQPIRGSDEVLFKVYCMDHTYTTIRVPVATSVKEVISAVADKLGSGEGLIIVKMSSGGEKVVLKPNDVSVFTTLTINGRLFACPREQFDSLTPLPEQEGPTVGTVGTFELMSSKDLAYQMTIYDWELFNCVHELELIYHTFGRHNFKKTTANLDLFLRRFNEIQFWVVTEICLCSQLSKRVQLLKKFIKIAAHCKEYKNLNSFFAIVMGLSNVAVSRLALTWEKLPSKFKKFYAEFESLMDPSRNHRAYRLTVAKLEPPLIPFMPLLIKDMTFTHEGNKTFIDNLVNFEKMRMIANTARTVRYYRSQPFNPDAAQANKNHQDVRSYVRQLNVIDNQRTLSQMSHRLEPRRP
Method in brief: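 Signal normalized against 6.5 mM cAMP as agonist control. Mix of EPAC2 (100 nM), RAP1B-BODIPY-GDP (250 nM) and GDP (50 uM) was read kinetically at 480/540 nm, every 5 min over 30 min, after 5 min room-temperature incubation with compound.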
% is set by controls: 0 for no effect and ±100 for the full control effect.

activation, inactive:
CC(=O)NCCNc1nc(-c2cccnc2)nc2ccccc12 -2.17%
Cc1cc2c(c(-c3nc4ccccc4s3)c1)OC(CNC(=O)c1occc1C)C2 (centres undefined) -3.65%
Nc1cccc2c(N)cccc12 -5.3%
Cc1cc(=O)[nH]c2ccc([N+](=O)[O-])cc12 -9.2%
COC(=O)[C@@H]1CCCN1C(=O)c1c(OC)cc(=O)n2c1CCN(Cc1ccc(C)o1)CC2 2.82%
c1ccc(Nc2ncnc3ccc(-c4ccc5c(c4)OCO5)cc23)cc1 -27.9%
COc1ccc(-n2c(=O)c(CCc3ccccc3)nc3cnc(OC)nc32)cc1 -13.6%
CCCCCCCCN1[C@@H](CC(=O)OC)c2ccc(/C=C/C(=O)OC)cc2S1(=O)=O -11.9%
CC(C(=O)O)c1ccc(C(=O)c2cccs2)cc1 (centres undefined) 5.85% and -16.1%
CN(CC1COCCO1)C(=O)c1cnn(-c2nccc(-c3ccccc3C(F)(F)F)n2)c1C1CC1 (centres undefined) -13.1%
CCCN1CCC(=O)N([C@H](CSc2ccccc2)c2ccccc2)CC1 -10.4%
O=C(CCc1cccnc1)NCC1Cc2cccc(-c3ncccn3)c2O1 (centres undefined) -3.65%
CN(Cc1ccco1)c1ncncc1-c1cccc(C#N)c1 2.43%
COc1ccc(/C=C/C(=O)c2ccc(OC)cc2OC)cc1 11.9%
COc1ccccc1-c1ccc2ncnc(NCc3ccccc3)c2c1 -0.437%
O=C(O)c1cccnc1C(=O)O 7.75% and -12.5% and -13.3%
O=C1CCC(=O)N1CO -16.5%
CCCCC[C@H](O)/C=C/[C@H]1[C@H](O)CC(=O)[C@@H]1CCCCCCC(=O)O 6.8% and 3.01%
CC(=O)Nc1ccc(C(=O)O)cc1 6.38%
CCC(=O)NCCC1CCc2ccc3c(c21)CCO3 (centres undefined) 3.54%
Oc1ccc(C2Oc3cc(O)cc(O)c3CC2O)cc1 (centres undefined) -2.91%
COc1ccccc1OC(=O)Oc1ccccc1OC -17.2%
COc1cccc(Cn2c(=O)cnc3cncnc32)c1 8.5%
O=C(NCC1(N2CCOCC2)CCCC1)c1cnn(-c2nccc(-c3cccs3)n2)c1C1CC1 -31.5%
Cn1c(=O)cnc2cnc(Oc3ccccc3)nc21 3.31%
O=c1[nH]cnc2c1ncn2C1CC(O)C(CO)O1 (centres undefined) -7.74%
c1cn(-c2cc(-c3ccc4c(c3)OCO4)ncn2)cn1 -17.3%
COc1ccc(-c2cc(=O)c3c(O)c(OC)c(O[C@@H]4OC(COC5OC(C)C(O)C(O)[C@@H]5O)C(O)C(O)C4O)cc3o2)cc1 (some centres undefined) -7.87%
CCN1CCC[C@H]1CNC(=O)c1c(O)c(Cl)cc(Cl)c1OC -10.2% and -16.6% and -19.1%
O=C(c1ccco1)N1CCC2(CC1)CCN(c1ccc(-c3ccccc3)cc1)CC2 -0.171%
COc1ccc(OC)c(-c2cc(Cl)c3c(c2)CC(CNC(=O)C(C)N2CCOCC2)O3)c1 (centres undefined) -13.4%
Cc1ccccc1CN1Cc2cccc3c2[C@H](C=CC3)CC1=O -21.1%
CCOC(=O)N(C(=O)c1ccccc1)c1ccccc1 -31.5%
COc1ccc(C(=O)Nc2ccccc2CCC2CCCCN2C)cc1 (centres undefined) 7.33%
CN(C)c1ccc(-c2nccc(NCc3ccccc3)n2)cc1 -13.3%
COc1cccc(CN2C(=O)NC(C)(C3CCN(Cc4cc(Cl)ccc4O)CC3)C2=O)c1OC (centres undefined) 0.915%
CN1CCN(c2ncc3nc(-c4ccccc4)c(=O)n(C4CC4)c3n2)CC1 5.59%
CCC1C(=O)NCCN1Cc1ccc2c(c1)CN(Cc1cc(OC)ccc1OC)CCO2 (centres undefined) -8.54%
COC(=O)C1=C(C)NC(C)=C(C(=O)OCC(C)C)C1c1ccccc1[N+](=O)[O-] (centres undefined) -30.9%
CC1(C)CCC(C)(C)c2cc(C(=O)Nc3ccc(C(=O)O)cc3)ccc21 -16.2%
N[C@H](CCC(=O)NCC(=O)O)C(=O)O 1.75%
O=C(c1csnn1)N1CCC[C@@]2(CCN(c3ncccn3)C2)C1 -8.33%
CCCN=C(N)NCCC[C@H](N)C(=O)O -9.59%
CCCCN(CCC(=O)O)c1ccc(/C=C/c2ccnc3ccccc23)cc1 -31.5%
O=C(c1ccco1)N1CCC[C@@]2(CCN(Cc3nccs3)C2)C1 -9.87%
O=S(=O)(O)c1ccc2c(N=Nc3ccc(S(=O)(=O)O)c4ccccc34)c(O)c(S(=O)(=O)O)cc2c1 -30.9%
COc1cc2c(cc1O)C(Cc1ccc(O)cc1)[N+](C)(C)CC2 (centres undefined) -19.2%
Nc1c(Br)cc(C=O)cc1Br -7.44%
COc1cc(-c2cc(C)c3c(OC)ccc(OC)c3n2)cc2c1OCCN(C(=O)CCn1ccc(C)n1)C2 -3.01%
O=c1cc(-c2ccc(O)cc2)oc2cc(O)ccc12 -1.03%
N#Cc1ccccc1-c1nc(NCCN2CCOCC2)c2ccccc2n1 -4.27%
Cc1ccccc1CNc1ncnc2c1ncn2[C@@H]1O[C@H](CO)[C@@H](O)[C@H]1O -14.6%
O=C(c1cnccn1)N1CCC2(CCN(Cc3ccncc3)CC2)CC1 -3.01%
Cc1noc(C)c1C(=O)N1CCC2(CCCN(c3ccccc3)C2)CC1 9.1%
COC(=O)N1CCC[C@@]2(CCN(C(=O)Nc3cccc(C#N)c3)C2)C1 -7.87%
CCC(C)[C@H]1COCCS(=O)(=O)N1Cc1ccc(Br)cc1 (some centres undefined) -22.4%
COC(=O)C1=C(C)NC(C)=C(C(=O)OCCN(C)Cc2ccccc2)C1c1cccc([N+](=O)[O-])c1 (centres undefined) 9.02% and -0.903% and -25.3%
COc1ccc(-n2c(CNC(=O)c3cccc4ccccc34)nnc2SC)cc1 8.88%
Oc1cc(-c2nc3ccccc3s2)cc2c1OCCN(Cc1cccn1-c1ncccn1)C2 -12.9%
CSc1nnc(CCNC(=O)c2ccc(-c3cccc(F)c3)cc2)n1-c1ccc(F)cc1 -19.2%
CCCCN1CC[C@H]2C=CC[C@@H](C(=O)NCc3cccnc3)[C@H]2C1=O -4.87%
COC(=O)[C@H]1[C@H]2C[C@@H]3c4[nH]c5cc(OC)ccc5c4CCN3C[C@H]2C[C@@H](OC(=O)/C=C/c2cc(OC)c(OC)c(OC)c2)[C@@H]1OC 3.06%
NCCCC[C@H](NC(=O)[C@@H]1CCCN1C(=O)[C@@H]1CSSC[C@H](N)C(=O)N[C@@H](Cc2ccc(O)cc2)C(=O)N[C@@H](Cc2ccccc2)C(=O)N[C@@H](CCC(N)=O)C(=O)N[C@@H](CC(N)=O)C(=O)N1)C(=O)NCC(N)=O -6.83% and -13.4%
N#Cc1cccc(-c2nccc(NCc3ccccc3)n2)c1 -10.9%
N#CCCn1c(=O)c(-c2ccc(F)cc2)nc2cnc(N3CCOCC3)nc21 -0.246%
CN(C)c1ccc(-c2nc(NCCN3CCOCC3)c3ccccc3n2)cc1 -14.7%
COc1ccccc1CNc1cc(-c2ccccc2OC)ncn1 -14.2%
CC(=O)N1CCN(C)CC1 -17.5% and 1.56%
CNc1c2c(nn1C)CCCC2 -5.43%
CC(C)=CCc1c2c(c3occ(-c4ccc(O)cc4)c(=O)c3c1O)C=CC(C)(C)O2 -62%
CN1CCN(c2c(F)cc3c(=O)c(C(=O)O)cn4c3c2SCC4)CC1 2.13%
Cn1cccc1C(=O)N1CCC2(CCCN(C(=O)Nc3ccccc3)C2)CC1 9.22%
OC1(c2ccc3c(c2)CN(Cc2ccco2)CCO3)CCN(c2ccccc2F)CC1 2.96%
CO[C@H]1[C@H](NC(=O)c2ccsc2)c2ccccc2C12CCN(Cc1cccc3ncccc13)CC2 -8.23%
O=C(c1csnn1)N1CCC2(CC1)CCN(c1ccccn1)CC2 -12.9%
CCCCC#Cc1nc(NC)c2ncn([C@@H]3O[C@@H](CO)[C@H](O)[C@H]3O)c2n1 -19.1%
COC(=O)C1=C(C)NC(C)=C([N+](=O)[O-])[C@@H]1c1ccccc1C(F)(F)F -23.5%
COc1ccccc1N1CCN(C[C@@H](O)COc2cccc3ccccc23)CC1 -11.9%
Cc1c(I)c(=O)n(-c2ccccc2)n1C 2.2%
Cc1cccc(CNc2ccnc(-c3ccccc3C(F)(F)F)n2)c1 -5.59%
Cc1ccccc1C(OCCN(C)C)c1ccccc1 (centres undefined) -5.66% and -9.12% and 17.7%
CCC1CN(CC(=O)NCc2cc(C)n(C)n2)Cc2cc(OC)ccc2O1 (centres undefined) -0.917%
O=C(c1cccc(F)c1)N1CCC2(CCN(Cc3ccncc3)CC2)CC1 6.8%
CC(C)C[C@H]1C(=O)N2CCC[C@H]2[C@]2(O)O[C@](NC(=O)[C@@H]3C=C4c5cccc6[nH]c(Br)c(c56)C[C@H]4N(C)C3)(C(C)C)C(=O)N12 20.7% and 0.158%
